# In the supplement of paper PMC3724861:
# The other results are listed elsewhere or left out.
# System: T1, Caupolican (Caup) homeodomain DNA-binding domain
# T1 sequence: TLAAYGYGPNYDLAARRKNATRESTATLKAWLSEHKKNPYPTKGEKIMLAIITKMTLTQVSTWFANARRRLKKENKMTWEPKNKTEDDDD
# Assay: PBM E-score (8-mer, recovered from the published 9-mer minima) (E-score (dimensionless, -0.5 to 0.5)); Drosophila protein; higher = stronger relative binding preference, active = 0.31 or more
# Summary of the method: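 An enrichment score, with higher meaning stronger, expresses relative binding preference for each short DNA word. The protein used was Caup's homeodomain DNA-binding domain (residues 214-303), produced by in vitro transcription and translation and tested at 100 nM on custom-designed protein binding microarrays. The 8-mer values were recovered from published 9-mer scores, each equal to the lower of its two constituent 8-mer scores.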
row,Sequence,PBM E-score
1,GAGCCGAC,inactive: -0.2
2,TGACGCCA,inactive: -0.11
3,AAATTAAT,inactive: 0.145
4,AGAGTTAG,inactive: -0.0678
5,CTGTATAA,inactive: 0.186
6,AGCTTGCG,inactive: -0.158
7,AATGTAGA,inactive: 0.139
8,AGCTCTGC,inactive: -0.216
9,TGTACAAA,active: 0.384
10,CAATTGGC,inactive: -0.0129
11,ACCGAACA,≥ 0.244
12,CCGGAGCA,inactive: -0.122
13,GCTTGTAC,active: 0.38
14,ATTCATAG,inactive: 0.163
15,GTATCCAC,inactive: -0.0186
16,TTAGCAAA,inactive: 0.0812
17,AAAGTGCG,inactive: -0.13
18,TCCATTAA,inactive: 0.0869
19,GCGCCAGA,inactive: -0.223
20,TACCGCCA,≥ -0.0192
21,CTCAAAAG,inactive: 0.0163
22,CGTATGCC,inactive: -0.0747
23,GACATAGA,inactive: 0.187
24,AATATGAA,inactive: 0.159
25,CTGCCTGA,inactive: -0.0293
26,ACTACCGA,inactive: -0.0388

row,Sequence,PBM E-score
1,ATTCCGCG,inactive: -0.115
2,AACCTAAT,inactive: -0.0419
3,AAGCCAGA,inactive: -0.0853
4,GTATCGGA,inactive: 0.0601
5,ACACGAAT,inactive: 0.288
6,CAGCTCGG,inactive: -0.182
7,CTAGCAAC,inactive: 0.101
8,ACGTGACG,inactive: 0.0293
9,TCCACGCA,inactive: -0.0934
10,GTAGAATA,inactive: 0.232
11,GGACGCAC,inactive: -0.0705
12,TAGATGGA,inactive: 0.0256
13,GAGTCCGC,inactive: -0.197
14,ATCACAAT,inactive: 0.174
15,CACGGAAA,inactive: 0.119
16,CCCACTGA,inactive: -0.0823
17,CCCAGTCC,inactive: -0.0854
18,CCACAGCC,inactive: -0.141
19,ACGGACAT,inactive: 0.265
20,AGCAGACA,inactive: 0.0631
21,CACAAAGG,inactive: -0.0704
22,ATAGTCAA,inactive: 0.0921
23,AGGGTGCC,inactive: -0.169
24,GGTCGCGA,inactive: -0.0519
25,GGGTGTAA,inactive: 0.146
26,ACCAAGGG,inactive: -0.03

row,Sequence,PBM E-score
1,AATTCAAA,inactive: 0.141
2,AGGACTGG,inactive: -0.0346
3,CCTCCTAG,inactive: -0.0581
4,CTCCAGAG,inactive: -0.179
5,GTGACATA,active: 0.312
6,ACCTAATA,inactive: 0.117
7,GCAAGTCA,inactive: 0.0708
8,ACTGACAA,inactive: 0.283
9,ACAACTAA,inactive: 0.248
10,ATCCTAAA,inactive: 0.0253
11,GGACATGA,inactive: 0.304
12,CGCTAACC,inactive: -0.15
13,TAGGATAA,inactive: 0.00838
14,ATCGTCAC,inactive: 0.0878
15,GACCTCCC,inactive: -0.237
16,ACATTTTC,inactive: 0.161
17,CCAGAAGG,inactive: -0.0936
18,GTGCTTAA,inactive: 0.0207
19,TCATCGGA,inactive: 0.0107
20,TCGGGGCA,≥ -0.114
21,GCATTAAC,inactive: 0.052
22,ACGCCTCA,≥ -0.0822
23,ATCGGCGC,inactive: -0.0528
24,GGTATAAC,inactive: 0.0976
25,ACACGATG,active: 0.347
26,AGGAAGAC,inactive: -0.0315

row,Sequence,PBM E-score
1,AGCTCCAC,inactive: -0.0389
2,AAATAAGG,inactive: 0.0257
3,CACCAGAG,inactive: -0.069
4,TAGCGACA,inactive: 0.202
5,AAGACGCA,inactive: -0.0559
6,GCGCCCGA,inactive: -0.211
7,AGTTTTAG,inactive: -0.00033
8,GTTACTTA,inactive: 0.173
9,CTCGCAGC,inactive: -0.16
10,GAAGTTGC,inactive: -0.0485
11,ACCGATGG,inactive: -0.0399
12,AGCTATAC,inactive: 0.0668
13,CGACATAA,inactive: 0.303
14,CGTCCCAG,inactive: -0.163
15,ACGTGTTG,active: 0.347
16,CAGTGGCG,inactive: -0.206
17,AGATGCTC,inactive: -0.0113
18,GTAGGCCA,inactive: -0.113
19,AGCTGAAA,inactive: 0.00185
20,AGGTACTC,inactive: 0.085
21,CGCATGCC,inactive: -0.0847
22,CACGATCA,inactive: 0.145
23,ACCTGCGG,inactive: -0.19
24,AATGTCCT,inactive: 0.108
25,ATGGCTCA,inactive: -0.0747
26,AGACCTCA,inactive: -0.0286

row,Sequence,PBM E-score
1,AACCTGAC,inactive: 0.121
2,AGGACTCA,≥ -0.00857
3,CCAACGCA,inactive: -0.0857
4,TAAGCAGA,inactive: -0.0352
5,GACGACTC,inactive: -0.0849
6,ACCTTAGT,inactive: 0.0366
7,CCCAACGA,inactive: -0.0205
8,GAGGGATC,inactive: -0.148
9,AGTCGGCG,inactive: -0.116
10,GAAGTTTA,inactive: 0.0574
11,ACTCGTGC,inactive: -0.0342
12,CATGTGAA,inactive: 0.131
13,CATGGCTC,inactive: 0.0143
14,CCCAGGGC,inactive: -0.312
15,GGTCAAAA,inactive: 0.0172
16,ACCGGACC,inactive: -0.118
17,CCAATGTC,inactive: 0.0611
18,CTTTGGCA,inactive: -0.0546
19,GGGCCAAC,inactive: -0.123
20,AAAAGGAA,inactive: -0.00331
21,AACAGGAT,inactive: 0.196
22,AAAACTAC,inactive: 0.199
23,AGCTGGAC,inactive: -0.0138
24,CTACCTAA,inactive: 0.0488
25,GGAATGTA,inactive: 0.144
26,GACTCTGC,inactive: -0.166

row,Sequence,PBM E-score
1,CTCCACGC,inactive: -0.203
2,CCCTAGTA,inactive: 0.0295
3,ACCGACCT,≥ -0.0352
4,ACTCGCCT,inactive: -0.0825
5,GACTGAGA,inactive: -0.0628
6,CTACTCCA,inactive: -0.021
7,AGGGTGGC,inactive: -0.17
8,CGCTCGAG,inactive: -0.114
9,GCGTCCCC,inactive: -0.191
10,CATGGTGA,inactive: 0.0885
11,ATGGCGTA,inactive: 0.002
12,ACTAACGG,inactive: 0.013
13,GCTACTTA,inactive: 0.0916
14,GATGGCCC,inactive: -0.223
15,GAAGACTA,inactive: 0.00515
16,GATAACAA,active: 0.32
17,CACTCCGA,inactive: -0.138
18,AGCACGCT,inactive: -0.138
19,ACTCTACA,inactive: 0.193
20,TCCATGCA,inactive: -0.0253
21,TCTTAAAA,inactive: 0.0315
22,GTTATGGA,inactive: 0.068
23,CTTAGTAA,inactive: 0.103
24,TCATTAAA,inactive: 0.143
25,CTTACGTC,inactive: -0.129
26,AAAGGTCG,inactive: -0.118

row,Sequence,PBM E-score
1,ACGAAGGA,≥ -0.0222
2,ACTGTAGG,inactive: 0.0554
3,TAGCAACA,≥ 0.244
4,CCGCTAGC,inactive: -0.237
5,ACCTTACC,inactive: -0.0231
6,AGCTGTAT,inactive: 0.111
7,GGACGCGA,inactive: -0.081
8,AATAGGCA,≥ 0.0818
9,GAGGCTAC,inactive: -0.0893
10,ATGAACAA,inactive: 0.286
11,AACAGCGA,inactive: 0.0365
12,GAATAGCC,inactive: -0.146
13,GAAGGACC,inactive: -0.25
14,ACGGCGTG,inactive: -0.0192
15,AGTGGTTG,inactive: 0.201
16,CGAGTTTC,≥ 0.0614
17,ATTTGCCG,inactive: -0.0175
18,AACATACG,inactive: 0.28
19,CTCTCCTA,inactive: -0.0172
20,AGTGCTTG,inactive: 0.116
21,CGAATGTC,inactive: 0.147
22,CCTCTGCC,inactive: -0.243
23,ACCAATAG,inactive: 0.0279
24,AAGCACCA,inactive: -0.0758
25,AATGCCCG,inactive: -0.115
26,ACTGGAAA,inactive: -0.0184

row,Sequence,PBM E-score
1,GACAAGCA,active: 0.321
2,AAGCTCGT,inactive: 0.016
3,GAGCGAGA,inactive: -0.0287
4,ATTCTTTC,inactive: 0.0521
5,CACTGGAA,inactive: -0.0017
6,ACATTAGG,inactive: 0.0796
7,GGCCTGAC,inactive: -0.169
8,CGAGGGTC,inactive: -0.238
9,GAGGCGAA,inactive: -0.13
10,CTTGACAA,inactive: 0.231
11,GAACATTC,inactive: 0.167
12,GCTGTACA,inactive: 0.268
13,AATTTGCG,inactive: 0.047
14,ATGTGGGA,inactive: 0.0202
15,CCATGGAC,inactive: -0.0492
16,CCGTAAAC,inactive: 0.0245
17,GCCAGCCC,inactive: -0.241
18,TCACCTGA,inactive: -0.0249
19,ATCGATCA,≥ 0.159
20,ACAGAAGT,inactive: 0.0508
21,GATCATCA,inactive: 0.0732
22,AGGCGACC,inactive: -0.0984
23,ACGAAGGC,inactive: -0.203
24,ACCGAAGC,inactive: -0.129
25,ATCGCGCG,inactive: -0.105
26,CGCCGATA,inactive: -0.0683

row,Sequence,PBM E-score
1,ACGCCTCT,inactive: -0.0874
2,CCGCAGGA,inactive: -0.258
3,CGAGCCTC,inactive: -0.249
4,ACGATGGC,inactive: 0.00603
5,AACAGAAA,≥ 0.203
6,CGTCTTGA,inactive: -0.0138
7,CGCGTTCA,inactive: 0.03
8,ATACATGC,active: 0.374
9,CATGCCGG,inactive: 0.00418
10,CTATGACA,inactive: 0.223
11,GCAGGAAC,inactive: -0.0943
12,GTACACAA,active: 0.338
13,GTACAACA,active: 0.429
14,CTCGTTGC,inactive: 0.0292
15,ATGGTTTA,inactive: 0.111
16,CCATTATA,inactive: -0.00987
17,CGAAAGAA,≥ 0.0521
18,AGTGCGAC,inactive: -0.0749
